Laboratory results taken from PubChem BioAssay AID652106 (National Center for Advancing Translational Sciences (NCATS), 2013).
Where “and” joins values, the source holds several entries; their conditions need not be identical. Equal values may be shown once. About 500 (0.14%) of roughly 370,000 compounds were called active. Inconclusive means that the source gave no clear call. Such entries were picked first, then a sample of the others. Calls come from the whole dose curve; as a rule, active = well fitted activation curve with a large enough effect; inconclusive = small, poorly fitted or top-dose-only effect; inactive = no such curve, though single readings can be large or run the other way. A potency beside an inconclusive call is a rough fit, not a confirmed value.

Assay: qHTS of alpha-syn Inhibitors; note: nearly all actives have a fitted effect of over 65% in size; for growth rescue (activation): % of control where 0% means no effect
Details: Yeast expressing alpha-synuclein, BacTiter-Glo, 24 h; Potency: growth rescue unless noted; growth rescue (activation): at 46.1 µM (top of the series) unless noted
In short: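 Readout is rescue of growth in alpha-synuclein-expressing yeast, so inhibitors of toxicity appear as activators. Growth after 24 hr at 30 deg C in galactose medium is quantified by luminescence.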
Potency is the fitted concentration of half-maximal effect; tags give direction and shape of the fitted curve.

| Compound | Potency | growth rescue (activation) |
| --- | --- | --- |
| O=C(CSc1ccc2nnc(-c3ccccn3)n2n1)Nc1ccc(F)cc1 | inconclusive: 25.1 µM [activator, single point] | – |
| Cc1ccc(CNC(=O)CCS(=O)(=O)c2cccc3nsnc23)cc1 | inconclusive: 5.62 µM [activator, single point] | – |
| CCCCCC(O)c1cccc(OCc2ccc3ccccc3n2)c1 (stereo not drawn) | inconclusive: 35.5 µM [activator, single point] and inconclusive: 18.4 µM [activator, single point] | – |
| N/C(=N\OC(=O)c1ccc(F)cc1)c1ccccc1 | – | inactive: -52.8% |
| CCOc1ccc(C(=O)OC(C)C(=O)N2CCN(Cc3ccccc3)CC2)cc1 (stereo not drawn) | – | inactive: -1.54% |
| CC1=C(C(=O)N(C)C)CC(CC(=O)NCCc2ccccn2)C(=O)N1CCC1=CCCCC1 (stereo not drawn) | inconclusive: 0.562 µM [activator, full curve, poor fit] | – |
| NC(=O)Nc1ccc(/C=C/c2ccnc3ccccc23)cc1 | inconclusive: 31.6 µM [activator, single point] | – |
| CC1=C(C(=O)Nc2ccc(Cl)cc2)C(c2ccc(C(F)(F)F)cc2)n2nnnc2N1 (stereo not drawn) | inconclusive: 12.6 µM [activator, single point] | – |
| O=C(N/N=C/c1ccc([N+](=O)[O-])s1)c1cccc(Br)c1 | inconclusive: 3.55 µM [activator, single point] | – |
| CCc1nnc(NC(=O)c2cc(Cl)ccn2)s1 | inconclusive: 35.5 µM [activator, single point] | – |
| CCOC(=O)n1c2ccccc2c(=O)n1CCO | – | inactive: 2.88% |
| CC(=O)Nc1nc2ccccc2n1Cc1ccc(Cl)cc1 | inconclusive: 35.5 µM [activator, single point] | – |
| COc1ccc(N=Nc2ccc(O)c3ncccc23)cc1 | inconclusive: 5.62 µM [activator, single point] | – |
| O=C(CC(=O)c1ccccc1O)c1ccc(F)cc1 | inconclusive: 31.6 µM [activator, single point] | – |
| Cc1nn(CCCC(=O)Nc2cnn(Cc3ccc(F)cc3)c2)c(C)c1[N+](=O)[O-] | inconclusive: 3.55 µM [activator, single point] | – |
| CCCN1CNc2c(c(=O)[nH]c(=S)n2CCc2cccc(Cl)c2)C1 | – | inactive: -5.73% |
| Cc1ccc(-n2cnn(-c3ccc([N+](=O)[O-])cc3[N+](=O)[O-])c2=O)cc1 | inconclusive: 31.6 µM [activator, single point] | – |
| CC(C)(C)OC(=O)CNC(=O)c1[nH]cnc1C(=O)Nc1ccc(Cl)cc1 | inconclusive: 35.5 µM [activator, single point] | – |
| Nc1ccccc1SCC(O)Cn1ccc2ccccc21 (stereo not drawn) | inconclusive: 25.1 µM [activator, single point] | – |
| CCOC(=O)N1CCN(c2c(-c3ccc(C(C)C)cc3)c(=O)c2=O)CC1 | – | inactive: -0.369% |
| CCOC(=O)C1CCN(C(=O)C(CCSC)NC(=O)COc2ccccc2)CC1 (stereo not drawn) | inconclusive: 5.62 µM [activator, single point] | – |
| COc1ccc(N/C=C/C(=O)c2cc(OC)c(OC)c(OC)c2)cc1 | inconclusive: 35.5 µM [activator, single point] | – |
| COc1ccccc1C(=O)COC(=O)c1cnc(C)cn1 | – | inactive: -5.62% |
| O=S(=O)(c1cccs1)N1CCC(CO)(Cc2ccc(Cl)cc2)CC1 | inconclusive: 35.5 µM [activator, single point] | – |
| O=C(NC(=S)Nc1ccc(-c2ccccc2)cc1)c1ccccc1 | – | inactive: 14.4% |

| Compound | Potency | growth rescue (activation) |
| --- | --- | --- |
| Nc1nc(NCc2ccc(F)cc2)c2[nH]cnc2n1 | – | inactive: 8.09% |
| O=C(NC(=S)NNC(=O)[C@H]1C[C@@H]1c1ccccc1)c1ccc(F)cc1 | active: 3.55 µM | – |
| O=C1CC(=Nc2ccccc2)NN1c1ccccc1 | – | inactive: 12.5% |
| COCCn1c(=O)[nH]c2cc(C(=O)NCCN3CCN(c4ccc(OC)cc4)CC3)ccc2c1=O | inconclusive: 5.62 µM [activator, single point] | – |
| C=CCN(CC=C)C(=S)NC(=O)c1ccc(-c2ccccc2)cc1 | inconclusive: 35.5 µM [activator, single point] | – |
| CCOC(=O)C1=CCN(S(=O)(=O)c2cccc(Cl)c2)C1c1ccc(C)cc1 (stereo not drawn) | inconclusive: 35.5 µM [activator, single point] | – |
| CN(C)c1ccc(/C=C/c2ccnc3ccccc23)c(F)c1 | – | inconclusive: -35.3% [activator] |
| COc1cc(CNC(=O)C2CC(O)CN2C(=O)Nc2ccccc2)cc(OC)c1OC (stereo not drawn) | – | inactive: -5.88% |
| O=S(=O)(c1ccccc1)N1CCN(C(=S)Nc2ccccc2)CC1 | – | inactive: -3.29% |
| O=C(CSc1cccc[n+]1[O-])N1CCCCCC1 | – | inactive: 0.0784% |
| O=C1NC(=S)N/C1=C\c1ccc(N2CCOCC2)cc1 | – | inactive: -6.79% |
| CCCCC(=O)NC(=S)NNC(=O)CC | inconclusive: 22.4 µM [activator, single point] | – |
| Cc1nc(S(=O)(=O)N2CCOCC2)c(C#N)c(C)c1Cl | – | inactive: 4.12% |
| CCOC(=O)[C@]12CCC=C1N(CCC1=CCCCC1)C(=O)[C@H](CC(=O)NCc1cccs1)C2 | inconclusive: 35.5 µM [activator, single point] | – |
| Cc1ccc(Nc2nc(-c3ccc(S(=O)(=O)N4CCOCC4)cc3)cs2)cc1Cl | – | inactive: -12.9% |
| Nc1cccc(Oc2c(F)c(F)c(Oc3cccc(N)c3)c(F)c2F)c1 | – | inactive: -13.1% |
| Cc1nc2scc(C)n2c(=O)c1S(=O)(=O)Nc1ccc(N2CCN(C(=O)C(C)C)CC2)cc1 | inconclusive: 31.6 µM [activator, single point] | – |
| CN(C)c1ccc(/C=C2\C=Cc3ccccc32)cc1N | – | inactive: 1.75% |
| O=S(=O)(c1cccc(C(F)(F)F)c1)N1CCC(CO)(CCCc2ccccc2)CC1 | inconclusive: 17.8 µM [activator, single point] | – |
| O=C(Nc1nc2c(s1)CCc1ccccc1-2)c1ccco1 | – | inactive: -10.2% |
| COc1ccc(-c2cc(-c3nc4ccccn4c3NCc3ccccc3)ccc2OC)cc1 | – | inactive: -38.2% |
| Cc1cc(C)c2nc3nc(C)cc(C)c3c(N)c2c1 | inconclusive: 35.5 µM [activator, single point] | – |
| COc1ccccc1CN1CCNC(=O)C1CC(=O)N(C)C1CCOCC1 (stereo not drawn) | inconclusive: 35.5 µM [activator, single point] | – |
| O=C(NC(=S)Nc1ccccc1O)c1ccc(Cl)cc1Cl | inconclusive: 22.4 µM [activator, single point] | – |
| CC(C)CCn1c(C(C)O)nc2ccccc21 (stereo not drawn) | – | inactive: -2.84% |

| Compound | Potency | growth rescue (activation) |
| --- | --- | --- |
| O=C(NC(=S)Nc1ccc(F)c(Cl)c1)C1CC1 | – | inactive: -12.8% |
| O=c1[nH][nH]c2c1[C@H](c1ccc(F)cc1)O[C@H](CCC(F)(F)F)C2 | inconclusive: 15.8 µM [activator, single point] | – |
| COc1ccc(-n2nnnc2C(c2cccs2)N2CCN(C/C=C/c3ccccc3)CC2)cc1 (stereo not drawn) | inconclusive: 31.6 µM [activator, single point] | – |
| Nc1cc(S(=O)(=O)Nc2ccccc2Cl)ccc1N1CCCCC1 | – | inconclusive: 42.7% [activator] |
| Cc1cccc(Nc2ncnc3c2cnn3C)c1 | – | inactive: -8.89% |
| Cc1cc(Cl)ccc1OCCCC(=O)NO | inconclusive: 12.6 µM [activator, partial curve] | – |
| COc1ccc(NC(=O)CN(C)S(=O)(=O)c2ccc(Cl)cc2)c([N+](=O)[O-])c1 | – | inactive: 1.47% |
| O=C(NCCN1CCOCC1)c1ccc(Cl)cc1 | inconclusive: 3.98 µM [activator, single point] | – |
| COc1ccc(N=Cc2nc(-c3ccccc3)oc2OC(C)=O)cc1 | inconclusive: 2.82 µM [activator, full curve, poor fit] | – |
| Cc1ccc(OCC(=O)NNC(=S)NC(=O)c2ccc(Br)o2)c(C)c1 | inconclusive: 3.55 µM [activator, full curve, poor fit] | – |
| COc1ccc(-c2cc3c(=O)n(CC(=O)NCCCN4CCC(N5CCCCC5)CC4)nc(C)n3n2)cc1 | inconclusive: 35.5 µM [activator, single point] | – |
| O=C(Nc1cc(C(F)(F)F)ccc1-n1cncn1)c1ccc(Cl)cc1 | – | inactive: 15.2% |
| O=c1[nH]c(=O)n([C@H]2C[C@@H](O)[C@@H](CO)O2)cc1F | – | inactive: 8.42% |
| CCCc1c(C(=O)N/N=C/c2ccco2)nnn1-c1nonc1N | inconclusive: 3.55 µM [activator, single point] | – |
| CCN(CC)CCCN(Cc1cc2cc3c(cc2[nH]c1=O)OCO3)C(=S)NCCOC | inconclusive: 5.62 µM [activator, single point] | – |
| Cc1ccccc1CN1CCC(CNc2ncnc3onc(-c4ccc(Cl)cc4)c23)CC1 | – | inactive: -6.9% |
| CN(C)S(=O)(=O)n1cc(/C=C(\NC(=O)c2ccccc2F)C(=O)NCCCn2ccnc2)c2ccccc21 | inconclusive: 5.62 µM [activator, single point] | – |
| COc1ccc(/C=C(\C)C(=O)NO)cc1 | inconclusive: 6.31 µM [activator, single point] | – |
| CC(=O)N1CCc2c(sc3c2c(=O)n(-c2ccccc2)c(=O)n3CC(=O)NCC2CCCO2)C1 (stereo not drawn) | inconclusive: 31.6 µM [activator, single point] | – |
| CCCCCCSc1ccc(-c2nc3ccc(C)cn3c2NCc2ccccc2)cc1OC | inconclusive: 5.62 µM [activator, single point] | – |
| COc1cc(-c2nc(C(=O)NCC3CCCO3)cc3c2[nH]c2ccccc23)cc(OC)c1OC (stereo not drawn) | inconclusive: 25.1 µM [activator, single point] | – |
| O=C1Cc2c([nH]c3ccc(Br)cc23)-c2ccccc2N1 | inactive | – |
| CCNC(=O)C(=O)N/N=C/c1cc([N+](=O)[O-])ccc1O | inconclusive: 5.01 µM [activator, full curve] | – |
